What was measured:
[1] = Absorbance maxima and extinction coefficients of fluorochrome dyes (spectrophotometer); assay type: physicochemical
Procedure: All of the new NIR fluorochrome dyes were purified twice by preparative HPLC, using a preparative HPLC instrument (Rainin, Woburn. Mass.) with a C18-RP preparative column (Vydec, Hesperia, Calif.) (flow rate=6 ml/min; eluant A, water with 0.1% TFA; eluant B, 90% of acetonitrile and 10% of eluant A; starting at 90% A for 5 min and then a linear gradient over 40 min to 50% A). The instrument's dual HPLC detector was set at 240 and 360 nm. The dyes were collected, and solvent was removed using a speed-vac concentrator (Savant, Holbrook, N.Y.).
The K+ions of the potassium salts were replaced with H+ to generate the corresponding free acids by ion-exchange chromatography (cation-resin, Dowex-50, 8% cross-link, 100-200 mesh).
(§1) About 20 mg of each fluorochrome dye was dissolved in 100 ml of deionized water. The absorbance was measured individually in three dilutions of the stock solution in deionized water or in 95% ethanol, using a Hitachi U-3000 spectrophotometer to determine the extinction coefficient. The fluorescence emission maxima and intensities of the dyes were obtained using a Hitachi F-4500 fluorophotometer, using dilute solutions in water and exciting at both the main absorption peak as well the short-wavelength shoulder of the main absorption peak. In the cases of NIR2, NIR4, NIR6, and NIR8, the quantum yields were calculated relative to a standard solution of the commercially available fluorochrome Cy5.5 (Amersham-Pharmacia, Piscataway, N.J.) with quantum yield of 0.29. The calculations for NIR1, NIR3, NIR5, and NIR7 were performed relative to a standard solution of another commercially available fluorochrome, Cy7 (Amersham-Pharmacia), with a quantum yield of 0.28.

[2] = Fluorescence emission maxima and quantum yields of the dyes (fluorophotometer); assay type: physicochemical
Procedure: as §1

[3] = water, relative to Cy5.5 (NIR2, NIR4) or Cy7 (NIR1, NIR3)

Compound | ε ([1]; solvent water) | Stokes shift ([2]; solvent water) [nm] | QY [2, 3] | ε ([1]; solvent H2O/CH3CN (1:1)) | λmax,abs ([1]; solvent H2O/CH3CN (1:1)) [nm] | QY ([2]; solvent H2O/CH3CN (1:1)) | Stokes shift ([2]; solvent H2O/CH3CN (1:1)) [nm] | λmax,em ([2]; solvent H2O/CH3CN (1:1)) [nm] | ε ([1]; solvent H2O/CH3CN (2:1)) | λmax,abs ([1]; solvent H2O/CH3CN (2:1)) [nm] | QY ([2]; solvent H2O/CH3CN (2:1)) | Stokes shift ([2]; solvent H2O/CH3CN (2:1)) [nm] | λmax,em ([2]; solvent H2O/CH3CN (2:1)) [nm] | also measured
CC[N+]1=C(C=CC=CC=CC=C2N(CCCCS(=O)(=O)[O-])c3ccc(C(=O)O)cc3C2(C)C)C(C)(C)c2c1ccc1c(S(=O)(=O)[O-])cc(S(=O)(=O)[O-])cc21.[K+].[K+] [NIR1] | 268,000 L mol^−1cm^−1 | 35 | 0.23 |  |  |  |  |  |  |  |  |  |  | λmax,abs ([1]; solvent ethanol): 769 nm
CC[N+]1=C(C=CC=CC=C2N(CCCCS(=O)(=O)[O-])c3ccc(C(=O)O)cc3C2(C)C)C(C)(C)c2c1ccc1c(S(=O)(=O)[O-])cc(S(=O)(=O)[O-])cc21.[K+].[K+] [NIR2] | 250,000 L mol^−1cm^−1 | 22 | 0.34 |  |  |  |  |  |  |  |  |  |  | λmax,abs ([1]; solvent water): 662 nm; λmax,em ([2]; solvent water): 684 nm
CC[N+]1=C(C=CC=CC=CC=C2N(C)c3ccc(NC(=O)CI)cc3C2(C)C)C(C)(C)c2c1ccc1c(S(=O)(=O)[O-])cc(S(=O)(=O)[O-])cc21.[K+] [NIR9] |  |  |  | 224,000 L mol^−1cm^−1 | 763 | 0.11 | 40 | 803 |  |  |  |  |  | 
CC[N+]1=C(C=CC=CC=C2N(C)c3ccc(NC(=O)CI)cc3C2(C)C)C(C)(C)c2c1ccc1c(S(=O)(=O)[O-])cc(S(=O)(=O)[O-])cc21.[K+] [NIR10] |  |  |  | 218,000 L mol^−1cm^−1 | 666 | 0.24 | 29 | 695 |  |  |  |  |  | 
CN1C(=CC=CC=CC=CC2=[N+](CCCCS(=O)(=O)[O-])c3ccc4c(S(=O)(=O)[O-])cc(S(=O)(=O)[O-])cc4c3C2(C)C)C(C)(C)c2cc(NC(=O)CI)ccc21.[K+].[K+] [NIR11] |  |  |  |  |  |  |  |  | 238,000 L mol^−1cm^−1 | 764 | 0.13 | 39 | 803 | 
CN1C(=CC=CC=CC2=[N+](CCCCS(=O)(=O)[O-])c3ccc4c(S(=O)(=O)[O-])cc(S(=O)(=O)[O-])cc4c3C2(C)C)C(C)(C)c2cc(NC(=O)CI)ccc21.[K+].[K+] [NIR12] |  |  |  |  |  |  |  |  | 245,000 L mol^−1cm^−1 | 667 | 0.24 | 30 | 697 | 

From US20050249668A1, “Nir-fluorescent cyanine dyes, their synthesis and biological use” (priority 2002, published 2005)
